Some of the results follow.
B1: Q9UKT9 (peptide)
chain: FNCNQCGHLFTQKGNLLRHIKL
B2: Q9UKT9 (peptide)
chain: FHCDICGAFFTQKGNLLRHIKL
B3: Q9UKT9 (peptide)
chain: FNCSVCGHHFTQKGNLLRHIKL
B4: Q9UKT9 (peptide)
chain: FGCNQCGHSFTQKGNLLRHIKL
B5: Q9UKT9 (peptide)
chain: FCCNICGAQFTQKGNLLRHIKL
B6: Q9UKT9 (peptide)
chain: FGCEICGRHFTQKGNLLRHIKL
B7: Q9UKT9 (peptide)
chain: FSCSVCGHFFTQKGNLLRHIKL
B8: Q9UKT9 (peptide)
chain: FECDVCGANFTQKGNLLRHIKL
B9: Q9UKT9 (peptide)
chain: FACPICGAMFTQKGNLLRHIKL
B10: Q9UKT9 (peptide)
chain: FICDICGAGFTQKGNLLRHIKL
B11: Q9UKT9 (peptide)
chain: FHCPICGHRFTQKGNLLRHIKL
B12: Q9UKT9 (peptide)
chain: FECNQCGHWFTQKGNLLRHIKL
B13: Q9UKT9 (peptide)
chain: FACPVCGAFFTQKGNLLRHIKL
B14: Q9UKT9 (peptide)
chain: LDCNQCGFCCTQKGNLLRHIKL
B15: Q9UKT9 (peptide)
chain: FRCEVCGAFFTQKGNLLRHIKL
B16: Q9UKT9 (peptide)
chain: FTCPICGRQFTQKGNLLRHIKL
B17: Q9UKT9 (peptide)
chain: LQCEICGFPCTQKGNLLRHIKL
B18: Q9UKT9 (peptide)
chain: FQCPQCGATFTQKGNLLRHIKL
B19: Q9UKT9 (peptide)
chain: LSCPICGFNCTQKGNLLRHIKL
B20: Q9UKT9 (peptide)
chain: FLCNQCGADFTQKGNLLRHIKL
B21: Q9UKT9 (peptide)
chain: FHCPICGRRFTQKGNLLRHIKL
B22: Q9UKT9 (peptide)
chain: FICSVCGHMFTQKGNLLRHIKL
B23: Q9UKT9 (peptide)
chain: FSCEICGAEFTQKGNLLRHIKL
B24: Q9UKT9 (peptide)
chain: FCCSVCGHLFTQKGNLLRHIKL
B25: Q9UKT9 (peptide)
chain: FGCNQCGHHFTQKGNLLRHIKL
B26: Q9UKT9 (peptide)
chain: FLCNQCGRFFTQKGNLLRHIKL
B27: Q9UKT9 (peptide)
chain: LYCPICGFVCTQKGNLLRHIKL
B28: Q9UKT9 (peptide)
chain: FKCNQCGAAFTQKGNLLRHIKL
B29: Q9UKT9 (peptide)
chain: LACNQCGFQCTQKGNLLRHIKL
B30: Q9UKT9 (peptide)
chain: FWCDQCGATFTQKGNLLRHIKL
B31: Q9UKT9 (peptide)
chain: FCCPVCGAMFTQKGNLLRHIKL
B32: Q9UKT9 (peptide)
chain: LRCEICGFECTQKGNLLRHIKL
B33: Q9UKT9 (peptide)
chain: FGCDICGAVFTQKGNLLRHIKL
B34: Q9UKT9 (peptide)
chain: FVCNICGAMFTQKGNLLRHIKL
B35: Q9UKT9 (peptide)
chain: FACNQCGAGFTQKGNLLRHIKL
B36: Q9UKT9 (peptide)
chain: FLCPQCGAGFTQKGNLLRHIKL
B37: Q9UKT9 (peptide)
chain: FMCNQCGRPFTQKGNLLRHIKL
B38: Q9UKT9 (peptide)
chain: FTCNVCGAVFTQKGNLLRHIKL
B39: Q9UKT9 (peptide)
chain: FICEICGRDFTQKGNLLRHIKL
B40: Q9UKT9 (peptide)
chain: FRCNVCGAHFTQKGNLLRHIKL
B41: Q9UKT9 (peptide)
chain: FDCNQCGHNFTQKGNLLRHIKL
B42: Q9UKT9 (peptide)
chain: FQCEICGADFTQKGNLLRHIKL
B43: Q9UKT9 (peptide)
chain: FGCDQCGADFTQKGNLLRHIKL
B44: Q9UKT9 (peptide)
chain: FKCDVCGANFTQKGNLLRHIKL
B45: Q9UKT9 (peptide)
chain: FTCPQCGANFTQKGNLLRHIKL
B46: Q9UKT9 (peptide)
chain: FKCNICGAFFTQKGNLLRHIKL
B47: Q9UKT9 (peptide)
chain: FRCDQCGAPFTQKGNLLRHIKL
B48: Q9UKT9 (peptide)
chain: FLCSVCGHYFTQKGNLLRHIKL
B49: Q9UKT9 (peptide)
chain: LKCPICGFDCTQKGNLLRHIKL
B50: Q9UKT9 (peptide)
chain: FCCDQCGATFTQKGNLLRHIKL

target: no compound (DMSO); test: log2 fold change of degron read counts, EGFP-low vs EGFP+ sorted cells; higher = lower degron-EGFP level without compound (poor expression or instability); details: compound: DMSO control; 18 h
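Further: jurkat cells carrying a lentiviral library of mutant zinc finger degrons fused to EGFP plus mCherry, mCherry+ cells FACS sorted, degron abundance counted by next-generation sequencing.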

Sequence	log2 fold change of degron read counts
B1	0.742
B2	-0.903
B3	0.0739
B4	0.291
B5	-0.34
B6	-0.669
B7	0.833
B8	-1.19
B9	0.167
B10	-1.63
B11	-0.313
B12	-0.0447
B13	0.783
B14	-0.765
B15	-0.188
B16	-0.636
B17	-0.022
B18	-1.27
B19	0.947
B20	-0.956
B21	-1.39
B22	-0.303
B23	-1.72
B24	-0.0677
B25	1.27

Sequence	log2 fold change of degron read counts
B26	1.18
B27	1.3
B28	-1.46
B29	-0.0882
B30	-0.626
B31	0.0247
B32	-1.09
B33	-0.972
B34	0.0496
B35	0.419
B36	-0.841
B37	-0.392
B38	-1.31
B39	-1.26
B40	-0.796
B41	0.63
B42	-1.98
B43	-1.63
B44	-2.01
B45	-1.14
B46	-1.38
B47	-1.13
B48	0.484
B49	0.698
B50	-1.67

From the supplement of paper PMC12645437, “Orthogonal IMiD-Degron Pairs Induce Selective Protein Degradation in Cells” (ACS Chemical Biology, 2025)
